Among all 44,000 compounds or so, about 340 (0.77%) were called active. Roughly 5% stayed inconclusive and do not appear here. The call rests on the fitted dose curve; in most records, active means well fitted inhibition curve with a large enough effect; inconclusive means small, poorly fitted or top-dose-only effect; inactive means flat fitted curve, though single readings scatter. Some of the results follow.
Assay: Acumen qHTS Assay for Inhibitors of the mTORC1 Signaling Pathway in MEF (Tsc2-/-, p53-/-) Cells: Sytravon;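 further: plate controls were DMSO for no effect and rapamycin for full effect; nearly all actives have a fitted effect of over 50% in size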
Details: phospho-rpS6 immunofluorescence/PI, 24 h; series mostly up to 38.3 µM; activity change, negative = inhibition: at the top concentration
Summary of the method: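 Cell-based qHTS: Tsc2-/- p53-/- MEF, 24 h cpd, 37 °C; fix/perm, anti-phospho-S6 Alexa-488 + PI; Acumen 488 nm scan; pS6/PI ratio, % positive cells; rapamycin 7.5 nM = inhibition ref; PI count = viability.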

Activity change, negative = inhibition, inactive:
Cc1ccccc1NC(=O)Cn1nnc(C(=O)NCCc2ccccc2)c1N 4.06%, O=C(NC1CCCCC1)c1ccc(CSc2nc3ccncc3n2Cc2ccc(F)cc2)cc1 -1.31%, CCc1nn2c(=O)c(S(=O)(=O)Nc3ccc(Br)cc3F)c(C)nc2s1 4.57%, CC(=O)c1cccc(NC(=O)Cn2nc(C(F)(F)F)c3c2CCC3)c1 4.39%, NC(=O)c1nn2c(C(F)(F)F)cc(-c3ccc(Br)cc3)nc2c1Cl -2.13%, CSc1nc(=O)c2c(n1C)NC(=O)CC2c1cc(F)cc(F)c1 (stereo not given) -3.24%, Cc1ccc(C)c(N(C)C(=O)Cc2c(C(=O)O)[nH]c3ccc(Cl)cc23)c1 -8.39%, CC(C)(C)CC(C)(C)c1ccc(OCC(=O)Nc2ccc(S(=O)(=O)Nc3ncccn3)cc2)cc1 1.23%, COc1ccc(C2C(C(=O)Nc3ccc(C)cc3C)=C(C)Nc3nc(SCc4cccc(C)c4)nn32)c(OC)c1 (stereo not given) -16.9%, CN(C)c1ccc(Nc2nc3ccccc3n3nnnc23)cc1 -0.899%, COc1ccccc1-c1nn2c(=O)cc(CN3CCN(C(=O)/C=C/c4ccccc4)CC3)nc2s1 8.36%, COc1cccc(CNC(=O)CN2C(=O)N(c3cccc(Cl)c3)S(=O)(=O)c3ccccc32)c1OC 0.413%, COc1ccc(N2CCN(S(=O)(=O)c3ccc(-c4cnc(C5CC5)o4)cc3)CC2)cc1 0%, CC1=C(C(=O)Nc2ccc(C)cc2C)C(c2ccc(Br)cc2)n2ncc(C(=O)Nc3cccc(C)c3)c2N1 (stereo not given) -0.658%, COc1ccccc1CNC(=O)CSc1nc(=O)[nH]c2c1CCC2 -3.68%, CCOc1ccc(NC(=O)Cn2c(=O)n(CCCCC(=O)NCc3ccc4c(c3)OCO4)c(=O)c3ccccc32)cc1 -8.77%, CCN(CC)c1ccc(-n2nc3cc(C)c(NC(=O)c4ccccc4C)cc3n2)c(C)c1 0.101%, CCc1ccc(S(=O)(=O)NCc2nc3cccnc3n2Cc2cccc(OC)c2)cc1 -5.25%, CCCCCn1c(CNC(=O)c2ccccc2)nc2ccccc21 7.33%, Cc1c(Cl)cccc1Nc1nn2c(=O)c3ccc(C(=O)NCCC4=CCCCC4)cc3nc2s1 -2.52%, Cc1cc(C)c(S(=O)(=O)N2CCN(Cc3ccc4c(c3)OCO4)CC2)cc1C -3.18%, COc1ccc(S(=O)(=O)c2nnn(-c3ccc(C(C)C)cc3)c2C)cc1 -3.62%, Cc1ccc(-n2c(=O)c3c(C)c(C)sc3n(Cc3ccc(F)cc3Cl)c2=O)cc1C -19.9%, COc1ccc(CCNC(=O)Cc2c(C)c3cc4c(C)coc4cc3oc2=O)cc1OC 3.72%, Oc1ccc(-c2nc3ccc(Cl)cn3c2Nc2ccc3c(c2)OCO3)cc1 -12%, CCOc1ccc(C2C(=O)N(C3CCCCC3)CC(=O)N2CCc2ccccc2)cc1OC (stereo not given) -6.9%, COc1cc(C(=O)NCc2nc3cccnc3n2Cc2ccc(C)cc2)cc(OC)c1OC -2.67%, Cc1cc(C)c(NS(=O)(=O)c2ccc(-c3coc(C)n3)cc2)c(C)c1 -8.08%, CC(=O)c1ccc(NC(=O)Cn2ncc3c4ccccc4n(Cc4ccccc4)c3c2=O)cc1 -5.58%, O=C(NCc1ccc(Cl)cc1)C1CCN(S(=O)(=O)c2ccccc2)CC1 -0.0978%, COc1ccc(N(C(=O)c2ccccc2)S(=O)(=O)c2ccc3c(c2)n(C)c(=O)n3C)cc1 0.233%, O=C1CC(=O)Nc2cc(S(=O)(=O)N3CCOc4ccc(Cl)cc43)ccc2N1 -1.27%, O=C(c1ccc2c(c1)N(Cc1cccc(Cl)c1)C(=O)c1ccccc1S2=O)N1CCN(c2cccc(C(F)(F)F)c2)CC1 (stereo not given) -1.47%, Cc1ccc(N(C)C(=O)CN2C(=O)CCc3cc(S(=O)(=O)N4CCOCC4)ccc32)cc1 10.4%, O=C(NC1CC(=O)N(c2ccc(F)cc2)C1)c1ccc2c(c1)OCO2 (stereo not given) -6.17%, O=C(Cn1c(=O)n2nc(-c3cccc(F)c3)nc2c2ccccc21)N1CCN(c2ccc(F)cc2)CC1 -1.55%, Cn1c(=O)c2c(ncn2Cc2ccc(Cl)cc2)n(C)c1=O -19.5%, CCN1CCN(C(c2ccccc2Cl)c2c(O)cc(C)n(Cc3ccco3)c2=O)CC1 (stereo not given) 5.68%, Cc1cccc(Cn2nnc3c(=O)[nH]c(C4CCCN(C(=O)c5ccccc5Cl)C4)nc32)c1 (stereo not given) -3.72%, CCc1ccc(NC(=O)Cn2c(=O)n(-c3cc(OC)c(OC)c(OC)c3)c(=O)c3ccccc32)cc1 3.88%, CC(NC(=O)c1ccc(F)cc1)c1nc2ccccc2[nH]1 (stereo not given) 1.9%, COc1ccccc1NC(=O)c1cn(-c2ccccc2)nc1-c1ccccc1 0.175%, Cc1cc(C(=O)C(=O)Nc2nncs2)c(C)n1-c1ccc(Cl)cc1 -6.43%, Cc1cccc(N2CCN(C(=O)c3noc4c3CCCCC4)CC2)c1C 4.47%, N#Cc1nc(/C=C/c2ccc(F)cc2)oc1NCc1ccc(F)cc1 -5.06%, COc1ccc(N2CCN(C(=O)CNS(=O)(=O)c3ccc(Br)s3)CC2)cc1 -11.2%, COc1ccc(OC)c(NC(=O)CN2CCCN(Cc3ccccc3Cl)S2(=O)=O)c1 -10.4%, O=C(CNC(=O)c1ccc(F)cc1)OCc1cc(=O)n2nc(C3CCCCC3)sc2n1 -1.72%, CCOc1ccccc1C(=O)NCc1nc2cccnc2n1Cc1ccc(C)cc1 -3.71%, CCOc1cc(CNC(=O)c2ccc3c(c2)N(C)C(=O)C2CCCCN32)ccc1OC (stereo not given) -9.17%, Cc1ccc(-n2ncc3c(NC4CCCCC4)ncnc32)cc1Cl 10.8%, COc1ccc(CNC(=O)CCCn2nc(C)c3c(C)n(-c4ccc(C)cc4)nc3c2=O)cc1OC -10.2%, CCN(c1ccccc1)c1nnc(NC(=O)Nc2ccc(Br)c(C)c2)s1 -1.15%, O=C(c1ccc2c(Cl)c3c(nc2c1)CCCC3)N1CCN(c2cccc(C(F)(F)F)c2)CC1 1.19%, O=C(CSc1nccn1Cc1ccco1)Nc1cc(C(F)(F)F)ccc1Cl -0.662%, O=C(CN1C(=O)COc2ccc(S(=O)(=O)N3CCCCCC3)cc21)N1CCN(c2ccccc2F)CC1 0.246%, CCOc1ccc(CNC(=O)CCS(=O)(=O)c2cc3c4c(c2)CCN4C(=O)CC3)cc1OC 9.83%, COc1ccc2nc(NC(=O)c3cc(=O)c4cc(C)cc(C)c4o3)sc2c1 -1.41%, COc1cc(OC)c(NC(=O)C2CCN(S(=O)(=O)c3ccc4c(c3)oc(=O)n4C)CC2)cc1Cl 8.3%, COc1ccc2c(CNCCc3cccs3)c(C(=O)O)n(Cc3cccc(F)c3)c2c1 3.32%
